The data scatter; read single values as rough.
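Further: [psi-pin-] Saccharomyces cerevisiae expressing SupN fusions, induced by 100 µM Cu2SO4, selected 7 d at 30 °C without adenine and uracil, scored by deep sequencing of output versus input.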

The nature of one data set: amyloid nucleation score relative to library mode (yeast Sup35 reporter selection) (log enrichment difference); higher = more amyloid nucleation; sequences are the first 22 residues of the Bri2 peptide extended by up to 12 random residues. Particulars: random library (experiment): 1;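 active = nucleation score significantly above 0 at FDR 0.05; inactive = not significantly above 0 or absent from output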.
With EASNCFAIRHFENKFAVETLICVIMCECDASV, the amyloid nucleation score was 7.76.

As to EASNCFAIRHFENKFAVETLICVIMMKKISSKYV, the amyloid nucleation score entry was “inactive”.

Regarding EASNCFAIRHFENKFAVETLICVIRARRGFSNLV, the amyloid nucleation score result was “inactive”.

Take EASNCFAIRHFENKFAVETLICVIRKL: the amyloid nucleation score entry was “inactive”.

For the sequence EASNCFAIRHFENKFAVETLICVISYMIMSVRSV, the amyloid nucleation score entry was “inactive”.

Turning to EASNCFAIRHFENKFAVETLICVITGRYSLLRCR, the amyloid nucleation score result was “inactive”.

On to EASNCFAIRHFENKFAVETLICVITLVFQLPICF, for which the amyloid nucleation score entry is “inactive”.

With EASNCFAIRHFENKFAVETLICVITMLVKCGREV, the amyloid nucleation score result is “inactive”.

As for EASNCFAIRHFENKFAVETLICVITNVVYRLWSC, the amyloid nucleation score entry is “inactive”.

For the sequence EASNCFAIRHFENKFAVETLICVITSVARRRHLV, the amyloid nucleation score entry was “inactive”.

In the case of EASNCFAIRHFENKFAVETLICVIVE, the amyloid nucleation score result is “inactive”.

With EASNCFAIRHFENKFAVETLICVIVFRFTLGDQL, the amyloid nucleation score result is “inactive”.

As for EASNCFAIRHFENKFAVETLICVIVLGVVVLHAG, the amyloid nucleation score worked out at 5.12.

The same data set, now with this note: random library (experiment): 2.
Regarding EASNCFAIRHFENKFAVETLICVILFYAFVLSMG, the amyloid nucleation score stood at 6.48.

With EASNCFAIRHFENKFAVETLICVILHMNITSFDW, the amyloid nucleation score result was “inactive”.

In the case of EASNCFAIRHFENKFAVETLICVILLLSICFLRM, the amyloid nucleation score is -0.122.

On to EASNCFAIRHFENKFAVETLICVIM, for which the amyloid nucleation score is 8.48.

Take EASNCFAIRHFENKFAVETLICVIMFGWAAPRWT: the amyloid nucleation score result is “inactive”.

In the case of EASNCFAIRHFENKFAVETLICVIMWHFRDNE, the amyloid nucleation score was -0.231.

As for EASNCFAIRHFENKFAVETLICVIMWNIEPCRLL, the amyloid nucleation score result is “inactive”.

Consider EASNCFAIRHFENKFAVETLICVIMWQNLPYFGK, for which the amyloid nucleation score entry was “inactive”.

Consider EASNCFAIRHFENKFAVETLICVIN, for which the amyloid nucleation score was 8.24.

Turning to EASNCFAIRHFENKFAVETLICVIRCRQGYMNKL, the amyloid nucleation score entry was “inactive”.

Consider EASNCFAIRHFENKFAVETLICVIRFFYQSFD, for which the amyloid nucleation score result was “inactive”.

Regarding EASNCFAIRHFENKFAVETLICVIRGHVV, the amyloid nucleation score result is “inactive”.

As to EASNCFAIRHFENKFAVETLICVIRNIIALMGRQ, the amyloid nucleation score entry was “inactive”.

As to EASNCFAIRHFENKFAVETLICVIRPVCCIRHVL, the amyloid nucleation score result is “inactive”.

As for EASNCFAIRHFENKFAVETLICVISAFEH, the amyloid nucleation score was determined as 4.05.

Consider EASNCFAIRHFENKFAVETLICVISSIRGFMFVL, for which the amyloid nucleation score entry was “inactive”.

With EASNCFAIRHFENKFAVETLICVITIV, the amyloid nucleation score result was “inactive”.

For the sequence EASNCFAIRHFENKFAVETLICVITQHSLLALWG, the amyloid nucleation score entry is “inactive”.

Consider EASNCFAIRHFENKFAVETLICVITVRISRSFLC, for which the amyloid nucleation score entry was “inactive”.

As to EASNCFAIRHFENKFAVETLICVIVATCCHPVSV, the amyloid nucleation score entry is “inactive”.

On to EASNCFAIRHFENKFAVETLICVIVCNYQVIPAC, for which the amyloid nucleation score amounted to 0.693.

As to EASNCFAIRHFENKFAVETLICVIVCTCTVRFSM, the amyloid nucleation score entry is “inactive”.

The same data set, now with this note: random library (experiment): 3.
In the case of EASNCFAIRHFENKFAVETLICVIMLQGKMGTSV, the amyloid nucleation score entry is “inactive”.

In the case of EASNCFAIRHFENKFAVETLICVINCGQMVMKTR, the amyloid nucleation score result was “inactive”.

Turning to EASNCFAIRHFENKFAVETLICVISGIKVFGWLW, the amyloid nucleation score result was “inactive”.

As to EASNCFAIRHFENKFAVETLICVITSTRRRWAGE, the amyloid nucleation score was determined as 3.43.

EASNCFAIRHFENKFAVETLICVITWKRRLIE: the amyloid nucleation score result is “inactive”.

For EASNCFAIRHFENKFAVETLICVIVRPFVWIAFG, the amyloid nucleation score entry was “inactive”.
